The source of these data is the supplement of paper PMC9446081.

Hit rate of the full screen: of about 39,000 compounds, about 220 (0.56%) showed activity. This is one part of the list.
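Note: static incubation at 37 °C against the wild-type strain, values averaged over two biological replicates.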

In the assay the test system is Escherichia coli K-12 BW25113. As to the kind of experiment: relative growth (OD600 normalised to plate interquartile mean) (fraction); higher = less growth inhibition, active = 0.2 or less. The conditions noted are these: 50 µM; LB; incubation time: overnight (16-24 h).
Regarding `C[C@@H]1CCCCO[C@@H](CN(C)Cc2ccc(C(=O)Nc3ccccc3N)cc2)[C@@H](C)CN([C@H](C)CO)C(=O)c2cc(NC(=O)Nc3ccc(F)cc3)ccc2O1`, the relative growth is inactive: 1. For the molecule `COc1ccc(NC(=O)Nc2cccc3c2O[C@@H](CN(C)S(C)(=O)=O)[C@H](C)CN([C@H](C)CO)C3=O)cc1`, the relative growth was inactive: 0.974. To `C[C@H](CO)N1C[C@H](C)[C@@H](CN(C)C(=O)Nc2cccc3ccccc23)OCCCC[C@H](C)Oc2ccc(NS(C)(=O)=O)cc2C1=O` belongs inactive: 1.01.

Take `NC(=O)CCCCC(N)=O`: the relative growth was inactive: 0.996. Consider `CC(C)(O/N=C(\C(=O)N[C@@H]1C(=O)N2C(C(=O)O)=C(C[N+]3(CCNC(=O)c4ccc(O)c(O)c4Cl)CCCC3)CS[C@H]12)c1csc(N)n1)C(=O)O`, for which the relative growth was active: 0.0469.

With `Cc1ccc(S(=O)(=O)N2C[C@H](O)COC[C@@H]3O[C@H](CC(=O)NCc4ccc5c(c4)OCO5)CC[C@H]32)cc1`, the relative growth was inactive: 1.02. As for `C[C@H](CO)N1C[C@H](C)[C@@H](CN(C)C(=O)Nc2ccc(C(F)(F)F)cc2)OCCCC[C@H](C)Oc2ccc(NC(=O)C3CCCCC3)cc2C1=O`, the relative growth is inactive: 1.02.

`C[C@@H]1CN([C@@H](C)CO)C(=O)c2cc(NC(=O)Nc3ccc(C(F)(F)F)cc3)ccc2O[C@H]1CN(C)C(=O)Nc1ccc(C(F)(F)F)cc1`: the relative growth is inactive: 1. On to `CO[C@@H]1CN(C)C(=O)c2ccc(NC(=O)C3CC3)cc2OC[C@H](C)N(C(=O)CN2CCOCC2)C[C@@H]1C`, for which the relative growth is inactive: 0.984. With `Cc1cccc(NC(=O)Nc2ccc3c(c2)C(=O)N(C)[C@H]2CC[C@@H](CC(=O)NCc4ccccc4Cl)O[C@H]2CO3)c1`, the relative growth was inactive: 1.03. To `COC(=O)CSc1nc(=O)c(C)n[nH]1` belongs inactive: 1.03; to `CN(C)CCNC(=O)[C@H]1Cn2ccnc2C2(CCN(Cc3nccs3)CC2)O1`, inactive: 1.01; to `COc1ccc(S(=O)(=O)N2C[C@@H](O)COC[C@@H]3O[C@H](CC(=O)NCCN4CCCCC4)CC[C@H]32)cc1`, inactive: 0.913.

With `C[C@@H]1CCCCO[C@@H](CN(C)C(=O)Nc2cccc3ccccc23)[C@@H](C)CN([C@@H](C)CO)C(=O)c2cc(NC(=O)C3CCCCC3)ccc2O1`, the relative growth was inactive: 1.01. `C[C@@H]1CN([C@@H](C)CO)S(=O)(=O)c2ccc(-c3ccc(C(=O)N(C)C)cc3)cc2O[C@@H]1CN(C)C(=O)C1CCC1`: the relative growth was inactive: 0.996. With `O=C(O)[C@H]1C[C@H](O)CN1Cc1ccccc1` the figure was inactive: 1.01; with `C[C@@H]1CN([C@@H](C)CO)C(=O)Cc2cc(NC(=O)Nc3cccc4ccccc34)ccc2O[C@H]1CN(C)Cc1ccc(-c2ccccc2)cc1`, inactive: 1.03.
